Data published in patent publication US20140213769A1 (KNU INDUSTRY COOPERATION FOUNDATION, published 2014).

Biological target: T1, VEGF165 (UniProt P15692-4 27-191)
T1 construct: Bought protein
T1 sequence (looked up): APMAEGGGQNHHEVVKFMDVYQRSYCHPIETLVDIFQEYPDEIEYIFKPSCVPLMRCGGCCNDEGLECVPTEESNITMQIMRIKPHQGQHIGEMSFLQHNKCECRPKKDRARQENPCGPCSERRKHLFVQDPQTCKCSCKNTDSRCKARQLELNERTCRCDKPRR
Test: indirect ELISA, VEGF165 coated, as in Example 2

B1: VEGF-trap (Fc) 2 (Fc fusion)
chain: GRYVQDYRSPFIASVSDQHGVVYITENKNKTVVIPCLGSISNLNVSLCARYPEKRFVPDGNRISWDSKKGFTIPSYMISYAGMVFCEAKINDESYQSIMYIVVVVGYRIDVVLSPSHGIELSVGEKLVLNCTARTELNVGIDFNWEYPSSKHQHKKLVNRDLKTQSGSEMKKFLSTLTIDGVTRSDQGLYTCAASSGLMTKKNSTFVRVHEKGPG[human IgG1 Fc cut from this listing]
notes: also called R2D2D3-hFc
B1: binds.
